Reference: the RNAGym collection of RNA variant scans (doi:10.1101/gad.245936.114)
This sample is rich in variants without activity.

B1: tRNA (parent)
chain: CUCUCGGUAGCCAAGUUGGUUUAAGGCGCAAGACUUUAAUUUAUCACUACGAAAUCUUGAGAUCGGGCGUUCGACUCGCCCCCGGGAGAUUUUUUCCUCGAGCAA

Variants of: B1
Experiment: nonsense suppression (GFP-seq) (ratio to wild type); higher = more function; SUP4oc tRNA, yeast GFP reporter sort-seq
Method in brief: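 Each variant's nonsense suppression (GFPSEQ) is a cell-share-weighted bin median GFP/RFP relative to the unmutated parent tRNA. Yeast with genome-integrated tRNA variants from a ~3% random-mutation library, a galactose-driven GFP ochre reporter and RFP were grown in raffinose/galactose medium with 80 mg/L adenine, then sorted into GFP/RFP bins for Illumina sequencing. Variants needed ≥100 reads and ≥30 cells.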

Nonsense suppression, ≤ 0.026:
CUCUCGGUAGACAAGUUGGGUUAAGGCGUAAGACUUUAAUUUAUCACUACGAAAUCUUGAGAUCGGGCGUUCGACUCGCCCCCGGGAAAUUUUUUCCUCGAGCAA
CUCUCGGUAGACAAGUUGGUUUAAGGCGCAAGACUUUAAUUUAUCACUACGAAAUCUUGAGAUCGGGCGUUCGACUCGUCCCCGGGAGAUUUUUUCCUCGAGCAA
CUCUCGGUAGACAAGUUGGUUUAAGGCGCAAGACUUUAAUUUAUCACUACGAAAUCUUGAGAUCGGGCGUUCGACUCGGCCCCGGGAGAUUUUUUCCUCGAGCAA
CUCUCGGUAGACAAGUUGGUUUAAGGCGCAAGACUUUAAUUUAUCACUACGAAAUUUAGAGAUCGGGCGUUCGACUCGCCCCCGGGAGAUUUUUUCCUCGAGCAA
CUCUCGGUAGACAAGUUGGUUUAAGGCACAAGACUUUAAUUUAUCACUACGAAAUGCUGUGAUCUGGCGUUCGACUCGCCCCCGGGAGAUUUUUUCCUCGAGCAA
CUCUCGGUAGGCCAGUUGGUUUUAGGCGCAAGACUUUAAUUUAUCACUACGAAAUCUUGAGAUCGGGGGUUGAACUCCCCCCCAGGAGAUUUUUUCCUCGAGCAA
CUCUCGGUAGACAAGUUGGUUUAAGGCGCAAGACUUUAAUUUAUCACUACGAAAUCUUGAGAUCGAGCGUUCGACUCGCCCCCGGGAGAUUUUUUCCUCGAGCAA
CUCUCGGUAGACAAGUUGGUUUAAGGCGCAAGACUUUAAUUUAUCACUACGAAAUCUUGAGAUCGGGCGUUCGACUCGCCCCCGGGAUAUUUUUUCCUCGAGCAA
CUCUCGGUAGACAAGUUGGUUUAAGGCGCAAGACUUUAAUUUAUCACUACGAAAUCUUGAGAUCGGGCGUUCGACUCGCCCCCGGGACAUUUUUUCCUCGAGCAA
CUCUCGGUAGACAAGCUGGUUUAAGGCGCAAGACUUUAAUUUAUCACUACGAAAUCUUGAGAUCGGGCGUUCGACUCGCCCCCGGGAGUUUUUUUCCUCGAGCAA
CUCUCGGUAGACAAGCUGGUUUAAGGCGCAAGACUUUAAUUUAUCACUACGAAAUCUUGAGAUCGGGCGUUCGACUCGCCCCCGGGAGGUUUUUUCCUCGAGCAA
CUCUCGGUAGACAAGUUGGUUUAAGGCUCAAGACUUUAAUUUAUCACUACGAAAUCUUGAGAUCGGGCGUUCGACUCGCCCCCGGGAGAUUUUUUCCUCGAGCAA
CUCUCGGUAGACAAGUUGUCUUAAGGCGCAAGACUUUAAUUUAUCACUACGAAAGCUUGAGAUCGGGCGUUCGACUCGCCCCCGGGAGAUUUUUUCCUCGAGCAA
CUCUCGGUAGACAAGUUGGUUCAAGGCGCAAGACUUUAAUUUAUCACUACGAAAUGUUGACAUCGGGCGUUCGACUCGCGCCCGGGAGAUUUUUUCCUCGAGCAA
CUCUCGGUAGACAAGUUGGUUACAGGCGCAAGACUUUAAUUUAUCACUACGAAAUCUUGAGAUCGGGCGUUCGACUCGCCCCCGGGAGAUUUUUUCCUCGAGCAA
CUCUCGGUAGACAAGUUGGUUUAAGGCGCAAGACUUUAAUUUAUCACUACGAAAUCUUGAGAGCGGGCGUUCGACUCGCCCCCGGGAGAUUUUUUCCUCGAGCAA
CUCUCGGUAGACAAGUUGGUUUAAGACGCAAGACUUUAAUUUAUCACUACGAAAUCUUGAGAUCGGGCGAUCGACUCGCCCCCGGGAGAUUUUUUCCUCGAGCAA
CUCUCGGUAGACAAGUUUGUUUAAGGCGCAAGACUUUAAUUUAUCACUACGAAAUCUUGAGAACGGGCGUUCGACUCGCCCCCGGGAGAUUUUUUCCUCGAGCAA
CUCUCGGUAGACAAGUUGGUUUAAGGCGCAAGACUUUAAUUUAUCACUACGAAAUCUUGAGAUCGGGCGUUCGACUCGCGCCCGGGAGGUUUUUUCCUCGAGCAA
CUCUCGGUAGACAAGUUGGUUUAAGGCGCAAGACUUUAAUUUAUCACUACGAAAUCUUGAAACCGGGCGUUCGACACGCCCCCGGGAGAUUUUUUCCUCGAGCAA
CUCUCGGUAGACAAGUGGGUUUAAGGCGCAAGACUUUAAUUUAUCACUACGAAAUCCUGAGAUCGGGCGUUCGACUCGCCUCCGGGAGAUUUUUUCCUCGAGCAA
CUCUCGGUAGACAAGUUGGUUUAAGGCGCAAGACUUUAAUUUAUCACUACGAAAUCUGGAGAUCGGGCGUUCGACUCGCCCCCUGGAGAUUUUUUCCUCGAGCAA
CUCUCGGUAGACAAGUUGGUUUAAGGCGCAAGACUUUAAUUUAUCACUACGAAAUCUUGAGAUCGGGCGUUCGAGUCGCCCCCGGGAGAUUUUUUCCUCGAGCAA
CUCUCGGUAGACAAGUUGGUUUAAGGCACAAGACUUUAAUUUAUCACUACGAAAUCUUGAGAUCGGGCGUUCGACCCGCCCCCGGGAGAUUUUUUCCUCGAGCAA
CUCUCGGUAGACAAGUUGGUUUAAGGCGCAAGACUUUAAUUUAUCACUACGAAAUCUUGAGAUCGGGCGUUCGACUCGCUACCGGGAGAUUUUUUCCUCGAGCAA
CUCUCGGUAGACAAGUUGGUUUAAGGCGCAAGACUUUAAUUUAUCACUACGAAAUCUUGAGAUCGGGCGUUCGACUCGCCCCAGGGAGAUUUUUUCCUCGAGCAA
CUCUCGGUAGACAAGUUGGUUUAAGGCGCAAAACUUUAAUUUAUCACUACGAAAUCUUGAGAUCGGGCGUUCGACUCGCCCCUGGGAGAUUUUUUCCUCGAGCAA
